{"source": "PubChem BioAssay AID1347165", "about": "(National Center for Advancing Translational Sciences (NCATS), 2019)", "note": "Out of some 220,000 compounds screened, about 5,700 (2.6%) were called active. This list was built around the results that the source calls inconclusive (neither active nor inactive); the mix of calls is not that of the screen. Calls come from the whole dose curve; as a rule, active = well fitted inhibition curve with a large enough effect; inconclusive = small, poorly fitted or top-dose-only effect; inactive = no such curve, though single readings can be large or run the other way. Where the call is inconclusive, the potency comes from a doubtful curve fit. Potency is the fitted concentration of half-maximal effect; tags give direction and shape of the fitted curve."}
{"biological_target": "Lysine-specific demethylase 5B (Homo sapiens) (UniProt Q9UGL1)", "sequence (Q9UGL1 whole entry, looked up)": "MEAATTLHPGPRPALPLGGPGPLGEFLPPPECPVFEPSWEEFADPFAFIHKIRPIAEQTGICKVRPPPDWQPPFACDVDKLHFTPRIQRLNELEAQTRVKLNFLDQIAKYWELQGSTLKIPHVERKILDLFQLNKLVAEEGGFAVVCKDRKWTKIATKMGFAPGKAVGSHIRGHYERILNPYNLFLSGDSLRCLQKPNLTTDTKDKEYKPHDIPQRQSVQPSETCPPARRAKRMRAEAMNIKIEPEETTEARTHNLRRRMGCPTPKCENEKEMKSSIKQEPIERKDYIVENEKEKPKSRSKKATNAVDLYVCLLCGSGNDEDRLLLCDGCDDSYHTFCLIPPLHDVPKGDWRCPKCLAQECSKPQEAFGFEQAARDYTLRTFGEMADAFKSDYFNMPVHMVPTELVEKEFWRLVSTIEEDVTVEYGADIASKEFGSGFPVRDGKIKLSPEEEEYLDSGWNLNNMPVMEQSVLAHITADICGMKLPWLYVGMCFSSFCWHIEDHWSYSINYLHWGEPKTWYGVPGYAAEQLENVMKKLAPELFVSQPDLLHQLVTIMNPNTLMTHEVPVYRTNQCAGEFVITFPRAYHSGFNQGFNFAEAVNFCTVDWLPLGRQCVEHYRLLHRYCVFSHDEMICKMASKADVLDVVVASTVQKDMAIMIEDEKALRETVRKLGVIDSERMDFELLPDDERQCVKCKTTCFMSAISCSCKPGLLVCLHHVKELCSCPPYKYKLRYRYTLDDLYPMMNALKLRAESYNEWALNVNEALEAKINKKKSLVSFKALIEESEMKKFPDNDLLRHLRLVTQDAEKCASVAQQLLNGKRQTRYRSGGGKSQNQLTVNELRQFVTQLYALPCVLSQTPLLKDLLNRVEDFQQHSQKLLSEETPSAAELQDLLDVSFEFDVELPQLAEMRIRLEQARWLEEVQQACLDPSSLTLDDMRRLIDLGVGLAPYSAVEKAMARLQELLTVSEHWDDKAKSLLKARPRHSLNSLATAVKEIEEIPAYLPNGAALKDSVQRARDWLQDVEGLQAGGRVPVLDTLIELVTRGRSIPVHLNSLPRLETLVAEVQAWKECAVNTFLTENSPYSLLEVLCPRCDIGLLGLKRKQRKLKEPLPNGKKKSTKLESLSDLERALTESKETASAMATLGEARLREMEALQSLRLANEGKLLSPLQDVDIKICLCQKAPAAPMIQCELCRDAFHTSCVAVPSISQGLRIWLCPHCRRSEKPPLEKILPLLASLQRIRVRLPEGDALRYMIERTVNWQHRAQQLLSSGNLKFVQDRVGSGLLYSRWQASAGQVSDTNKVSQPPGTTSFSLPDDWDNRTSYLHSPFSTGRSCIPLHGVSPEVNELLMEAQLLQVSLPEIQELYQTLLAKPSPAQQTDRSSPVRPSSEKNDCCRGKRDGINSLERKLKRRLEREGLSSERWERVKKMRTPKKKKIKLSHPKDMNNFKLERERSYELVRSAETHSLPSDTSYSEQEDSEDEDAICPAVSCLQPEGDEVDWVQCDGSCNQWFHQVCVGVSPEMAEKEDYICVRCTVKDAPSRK", "experiment": "Primary screen for KDM5B Histone Demethylases FDH-coupled qHTS; note: nearly all actives have a fitted effect of over 70% in size", "conditions": "FDH-coupled NADH fluorescence (FDH is formaldehyde dehydrogenase); series mostly up to 57.7 µM", "outline": "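Compound dilutions met 200 nM (final) KDM5BΔAP for 10 min at room temperature before substrate addition. The substrate mix held 12.5 µM H3K4me3 with cofactors 25 µM α-ketoglutarate and 50 µM Fe²⁺. NADH signal gain over 30 min defined activity.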"}
{"smiles": "OC(CNc1nccc(-c2cccnc2)n1)COc1ccc(Cl)cc1", "note": "(stereo not given)", "Potency": "inconclusive: 22.4 µM [inhibitor, partial curve, poor fit]"}
{"smiles": "COc1ccccc1NC(=O)NCc1cccn1Cc1ccccc1", "Potency": "inconclusive: 3.98 µM [inhibitor, partial curve, poor fit]"}
{"smiles": "Cc1ncccc1C(=O)N1CC(Oc2ccccc2-c2nc(-c3ccccc3)no2)C1", "Potency": "inconclusive: 25.1 µM [inhibitor, single point]"}
{"smiles": "O=C(c1ccc(Cl)cc1)N1CC2(CCCN(Cc3cccnc3)C2)Cc2ccccc21", "note": "(stereo not given)", "Potency": "inactive"}
{"smiles": "COc1cccc(NC(=O)CN2CCN(CC(=O)Nc3ccccc3Cl)CC2)c1", "Potency": "inconclusive: 14.1 µM [inhibitor, partial curve, poor fit]"}
{"smiles": "COc1cccc(Nc2ccc(CN3CCC(C)(NC(C)=O)C3)cc2)c1", "note": "(stereo not given)", "Potency": "inconclusive: 35.5 µM [inhibitor, single point]"}
{"smiles": "c1ccc(-c2noc(-c3ccn4c(CN5CCSCC5)nnc4c3)n2)cc1", "Potency": "inconclusive: 3.16 µM [inhibitor, full curve]"}
{"smiles": "COC[C@H]1C[C@@H](NC(=O)c2cccnc2)[C@H](O)[C@@H]1O", "Potency": "inconclusive: 22.4 µM [inhibitor, partial curve, poor fit]"}
{"smiles": "COc1ccccc1CN1Cc2cc(NC(=O)c3ccc(Cl)cc3)ccc2OC(C)C1=O", "note": "(stereo not given)", "Potency": "inconclusive: 31.6 µM [inhibitor, single point]"}
{"smiles": "O=C(c1cccn2nccc12)N1CCOCC1", "Potency": "inconclusive: 28.2 µM [inhibitor, single point]"}
{"smiles": "COc1ccc(-c2ccnc(-c3nnc(C)n3C3CCCCC3)c2)cc1OC", "Potency": "active: 35.5 µM"}
{"smiles": "Cc1ccc2c(c1)N(C(=O)Nc1cccc(C)c1C)CCO2", "Potency": "inconclusive: 31.6 µM [inhibitor, single point]"}
{"smiles": "CS(=O)(=O)N1CCc2cc(C(=O)N3CCN(c4ccccc4)CC3)ccc21", "Potency": "inconclusive: 25.1 µM [inhibitor, single point]"}
{"smiles": "CCCS(=O)(=O)Nc1ccc2n(c1=O)C[C@H]1C[C@@H]2CN(C(=O)c2ccc(-c3ccccc3)cc2)C1", "Potency": "active: 20 µM"}
{"smiles": "O=C(N1CCCC1)N1CCCC(c2nnc3n2CCNC3)C1", "note": "(stereo not given)", "Potency": "inconclusive: 89.1 µM [inhibitor, partial curve, poor fit]"}
{"smiles": "O=C1[C@@H]2C[C@@H](CN2Cc2ccc(F)c(F)c2)Oc2ccccc2N1Cc1ccccn1", "Potency": "inactive"}
{"smiles": "CCn1ccc2sc(C)c(C(=O)N3CCCCC3)c2c1=O", "Potency": "inconclusive: 17.8 µM [inhibitor, partial curve, poor fit]"}
{"smiles": "Cc1ccc(-c2nc(-c3nnn4c3COC(c3ccccc3Cl)C4)no2)cc1", "note": "(stereo not given)", "Potency": "inconclusive: 20 µM [inhibitor, single point]"}
{"smiles": "Cc1cc(C(=O)NCc2ccc(Cl)cc2)c2c(C)nn(-c3ccccc3)c2n1", "Potency": "inconclusive: 4.47 µM [inhibitor, full curve, poor fit]"}
{"smiles": "COc1ccc(CCNC(=O)C(=O)NCc2n[nH]c(=O)c3ccccc23)cc1", "Potency": "inactive"}
{"smiles": "CC(C)CSc1nc2c(c(=O)n(C)c(=O)n2C)n1CCCc1ccccc1", "Potency": "inactive"}
{"smiles": "O=C(COc1ccccc1)N1CCC(n2cc(-c3nc(-c4ccccc4)no3)nn2)CC1", "Potency": "inactive"}
{"smiles": "COc1ccccc1CNC(=O)CCC1N=C2c3ccccc3N=C(SCc3ccc(C)cc3)N2C1=O", "note": "(stereo not given)", "Potency": "inconclusive: 15.8 µM [inhibitor, partial curve, poor fit]"}
{"smiles": "COC(=O)c1c(NC(=O)Nc2ccc(Cl)cc2)sc(C)c1C", "Potency": "inconclusive: 28.2 µM [inhibitor, partial curve, poor fit]"}
{"smiles": "O=C1c2ccccc2NC(c2cccc([N+](=O)[O-])c2)N1O", "note": "(stereo not given)", "Potency": "inconclusive: 28.2 µM [inhibitor, single point]"}
{"smiles": "O=C(NCc1ccc(F)cc1)N1CC(Oc2ccc(-c3nc(-c4ccccc4)no3)cc2)C1", "Potency": "inactive"}
{"smiles": "CC(=O)c1cc(-c2ccccc2)n(CCC(=O)Nc2ccc(C)cc2C)c1C", "Potency": "inconclusive: 0.794 µM [inhibitor, full curve, poor fit]"}
{"smiles": "COc1ccc(-c2cc(N3CCC(NC(=O)c4ccc(C)cc4C)C3)n[nH]2)cc1", "note": "(stereo not given)", "Potency": "inconclusive: 20 µM [inhibitor, partial curve, poor fit]"}
{"smiles": "CC(NC(=O)c1cc(-c2ccncc2)nc2ccccc12)c1cccs1", "note": "(stereo not given)", "Potency": "inconclusive: 1.78 µM [inhibitor, partial curve, poor fit]"}
{"smiles": "CC(=O)Nc1ccc(CN2C(=O)OC3(CCN(Cc4ccc(C#N)cc4)CC3)C2(C)c2ccccc2)cc1", "note": "(stereo not given)", "Potency": "inconclusive: 31.6 µM [inhibitor, single point]"}
{"smiles": "CC(C)n1ncc2c(C(=O)NCc3ccccc3F)c3c(nc21)CCC3", "Potency": "inconclusive: 22.4 µM [inhibitor, partial curve, poor fit]"}
{"smiles": "CN(CCc1noc(-c2ccccc2)n1)S(=O)(=O)c1cccc2nsnc12", "Potency": "inactive"}
{"smiles": "Cc1nc2scc(C)n2c(=O)c1S(=O)(=O)N1CCN(c2cccc(C(F)(F)F)c2)CC1", "Potency": "inconclusive: 39.8 µM [inhibitor, single point]"}
{"smiles": "CCN1CCN(CCNC(=O)CCC[C@H]2NC[C@@H]3C[C@H]2CN(Cc2ccccc2)C3)CC1", "Potency": "inconclusive: 17.8 µM [inhibitor, partial curve, poor fit]"}
{"smiles": "CCOC(=O)c1cc(S(=O)(=O)N2CCN(c3ccc(C)cc3C)CC2)[nH]n1", "Potency": "inconclusive: 17.8 µM [inhibitor, partial curve, poor fit]"}
{"smiles": "O=C(CCCCCn1c(=O)[nH]c2ccccc2c1=O)NCc1ccccc1", "Potency": "inconclusive: 28.2 µM [inhibitor, partial curve, poor fit]"}
{"smiles": "COc1nc(OCC#N)nc(N2CCOCC2)n1", "Potency": "inactive"}
{"smiles": "CCc1ccc(-c2cnc3nc[nH]c(=O)c3n2)cc1", "Potency": "inconclusive: 28.2 µM [inhibitor, partial curve, poor fit]"}
{"smiles": "Cc1cccc(N(C)c2ccc3cc(S(=O)(=O)N4CCCC4)ccc3n2)c1", "Potency": "inconclusive: 35.5 µM [inhibitor, partial curve, poor fit]"}
{"smiles": "Cc1ccc(-n2ccnc2SC2CCCCC2=O)cc1C", "note": "(stereo not given)", "Potency": "inactive"}
